This assay has as its target a-syn (all forms) in human CSF (human, UniProt P37840). In words: reactivity of CSF with nanobody; ND CSF.

B1: D10 nanobody (scFv)
scFv: MAEVQLVESGGGVVQPGRSLRLSCAASGFTFSSYGMHWVRQAPGKGLEWVAVISYDGSNKYYADSVKGRFTISRDNSKNTLYLQVNSLRAEDTAVYYCARINAKWGQGTLVTVSSGGGGSGGGGSGGSAL[in this place about 100 residues]TFGQGTKVEIKRAAAHHHHHHGAAEQKLISEEDLNGAA
notes: Immobilized on the biosensor through the DSP linker
On to B1, for which the binding result was “binds”.

For the origin of these results see US20140011691A1 (ARIZONA BOARD OF REGENTS A BODY CORPORATE OF THE STATE OF …, published 2014).
